Source: the supplement of paper PMC11417369
± gives the standard deviation of the averaged measurements. The list shows a part of the results.

System: PfAP2-G AP2 domain (GST-tagged)
Assay: gcPBM binding intensity (ln(normalized median fluorescence intensity)); higher = stronger DNA binding
Method in brief: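 Each value is the highest Masliner-normalised natural-log median intensity across replicate spots of either orientation of a probe. The probes were primer-extended double-stranded 36-bp intergenic genomic sequences on an Agilent 4 × 180k array, alongside negative controls, exposed for 1 h to GST-tagged P. falciparum DNA-binding domains expressed in E. coli. Bound protein was picked up with Alexa488 anti-GST antibody and scanned at 488 nm.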

Row | Sequence | gcPBM binding intensity (ln)
1 | CTTATAAAAAAAAAAACATGCAACAGTAAAGAACAA [TGCATGCA_site892] | 10.1 ± 0.014
2 | GGTAATTTTTTTTAAATACACACTGAAATGTGAATT [CACACA_site564] | 9.965 ± 0.021
3 | CATACAGATATATATACACACATACAGATAAATACA [CACACA_site4592] | 10 ± 0.13
4 | ATATATTATATAATATGTACATAATAAAATTTAAAT [XGTACX_site1900] | 11.2 ± 0.59
5 | TTTTTATTTATATATATATATATATATTATATATAA [CACACA_negctrl_site1654] | 9.69 ± 0.15
6 | ATCTAAATAATATATATATATAATATTAATAATATA [CACACA_negctrl_site1620] | 9.69 ± 0.2
7 | GAGTAAACATATATATGTACATAAAGTTAACATTGC [XGTACX_site2225] | 11.1 ± 0.52
8 | ATTTTTTTTCATATAACACACACACTAATATAATGT [CACACA_site9226] | 10.4 ± 0.32
9 | TGAACACCCACAAATACACACAAAAAAAATAAATAA [CACACA_site248] | 10.2 ± 0.28
10 | CTTGTCATTGGGCACACACACATGTATAGGTTATTA [CACACA_site3058] | 10.7 ± 0.39
11 | AATAAATAAATATATACACACATATCTGTCTACATA [CACACA_site5708] | 9.74 ± 0.15
12 | ACAAGATCTAGATACACACACATATCTCTCAATCTA [CACACA_site6453] | 10.04 ± 0.092
13 | AATAATTGAAAAACACAAAAATGATTTTCCATAAAT [CACACA_negctrl_site1555] | 9.56 ± 0.13
14 | GTAAAAAAATAGCACACACACAAAAACACGCACAAA [CACACA_site6723] | 10.7 ± 0.53
15 | GGGACAGGACGAAAAAATAAATAAATAAATAAAAAA [CACACA_negctrl_site155] | 10.1 ± 0.37
16 | AGGAAAAACTTGAATGCATGCGCACATTCTAGTTTG [TGCATGCA_site776] | 9.9 ± 0.11
17 | TATTATTACGTAATATGTACATATATTTATACCACT [XGTACX_site5918] | 11.2 ± 0.52
18 | AAAAATATATATAACACACACATAATATATATATAT [CACACA_site2537] | 10.1 ± 0.45
19 | TTATAACACATTACATGTACAAATATAAATATATTC [XGTACX_site6503] | 10.7 ± 0.48

Row | Sequence | gcPBM binding intensity (ln)
20 | TTTTTTTTTGTTTACACACACAAAATATTATATGTA [CACACA_site2470] | 9.95 ± 0.042
21 | AAAAAAAAAAAAAAATGTACAAAAATTACTATAAAA [XGTACX_site7683] | 10.8 ± 0.54
22 | TATTTTTTTTTTATATGTACATAATTTCAAATAAAT [XGTACX_site7747] | 11.4 ± 0.83
23 | AAGGATATAACATACACACACACACCGATATATATA [CACACA_site6136] | 9.94 ± 0.14
24 | AAAATTATATATTATTGTACATAAAATTTTGACATA [XGTACX_site4886] | 11 ± 0.59
25 | ATAACGATATATGTGCGTACTTATAGAATAAGCAAA [XGTACX_site6743] | 11.3 ± 0.98
26 | ATATATCATATTATAGTGCATTTATAATAATATTAT | 9.93 ± 0.16
27 | TATTATCTGTAGTGTACACATATTATATAGTACTTT [CACACA_site4582] | 11.8 ± 1
28 | CAATAGTTCTTATGGGTGCAAACCACATATATATAA [GTGCAC_site9606] | 10.4 ± 0.23
29 | ATAAATACTAGGCACACACACATATATATATATATA [CACACA_site2080] | 10.4 ± 0.49
30 | ATATATATATATATATGTACATATATGTATACCTTA [XGTACX_site6791] | 11.2 ± 0.78
31 | TATATATATATATAAGTGCATATAAAAATCGTTCGT | 10.2 ± 0.26
32 | ATATATATATAATAAACACACACATATACATATATG [CACACA_site9145] | 10.18 ± 0.099
33 | ATTTTTTTTTTTTTTTTTTTTTTTTGGAGAAAGAGA [CACACA_negctrl_site1119] | 9.77 ± 0.21
34 | TTTATATACACACAGAAGAACAGAAATATTATATAT [TGCATGCA_negctrl_site483] | 10.035 ± 0.007
35 | AATATAAATAAAAACACACACACACCCATATATATA [CACACA_site2267] | 10.1 ± 0.32
36 | TTTATTTATCTGTATACACACTTTAATGAAAAGTTG [CACACA_site5400] | 10.6 ± 0.3
37 | ACAAATCTAAGATAGTGTACATTTATATATATATAT [XGTACX_site8740] | 11.1 ± 0.55
38 | TAAATGGGTGTTAATGCACACGATATGTCTATATAT [CACACA_site5321] | 9.955 ± 0.064

Row | Sequence | gcPBM binding intensity (ln)
39 | TCTACATATTAATTATGTACGAATTATTATTAGTAA [XGTACX_site6924] | 11 ± 0.74
40 | TATTTATTTTTCTGTTGTACTTTTCAACATGTTACA [XGTACX_site7457] | 11.3 ± 0.73
41 | GTCCCTATAAGGGGAACACACATAAATGGATATATA [CACACA_site6612] | 10.4 ± 0.28
42 | CATATTCATAAAAGTTGTACATGCAATTTTTTTTTT [XGTACX_site2261] | 11.3 ± 0.82
43 | TCAATAAAAAAAAACGCACACACAAATATATTCCAT [CACACA_site1223] | 10.18 ± 0.028
44 | TATTTATGTTCATATAAACACACGTAAAATTCAAGG [CACACA_site1538] | 10.3 ± 0.23
45 | CATTATATGATTTATGTGCACATTCATTTATTTTAA | 10.5 ± 0.2
46 | TATTAATAAAACCGTTGTACTACATACATAAATATT [XGTACX_site5578] | 11.5 ± 0.86
47 | AAAAATCAATTAGAAGAACACACGTAAATTTTTTTT [CACACA_site2396] | 10.03 ± 0.035
48 | ATATATATTATGTGTGTGCACTTTTGTTATTATTAT | 10.3 ± 0.16
49 | ATAACTAAATGATATTGTACAAAATAATTATATATT [XGTACX_site1331] | 10.6 ± 0.3
50 | ATACTATATATATAAGTGCATGTTCATTATACCTAA | 10.04 ± 0.057
51 | TAACATATTTTTAATACACACTTAAAAAAGTACTTA [CACACA_site4875] | 11.3 ± 0.91
52 | TATTACACATATTATACACACATATATTATATATAT [CACACA_site4951] | 10.2 ± 0.2
53 | TCTTCATACGACTAAAAAACATTAGACTGATAAAAA [CACACA_negctrl_site628] | 10.1 ± 0.4
54 | TTAAATTGAATTAGTTAACACACAACTTTTATTTCA [CACACA_site8921] | 9.765 ± 0.092
55 | TAAATCATTTCATGGCATTTACACAAAATTTTTTAA [CACACA_negctrl_site1260] | 9.89 ± 0.042
56 | TTGTGTTTTACATATACATGCAAATTTTTTTTTTTA [TGCATGCA_site303] | 9.7 ± 0.13
57 | ATATATATTTAAAAAAGTACAGAAGAAAATAACCCA [XGTACX_site642] | 11.5 ± 0.75
